Source: paper PMC4336329 (PLoS ONE, 2015)
Among all 310,000 compounds or so, about 2,200 (0.71%) showed an effect of 50% or more. Effects have a minus sign here. This is one part of the list.

biological target: human ether-à-go-go-related gene (hERG) potassium channel (human, UniProt Q12809); experiment: primary screen, population patch clamp on CHO cells stably expressing hERG
Sequence (Q12809 whole entry, looked up): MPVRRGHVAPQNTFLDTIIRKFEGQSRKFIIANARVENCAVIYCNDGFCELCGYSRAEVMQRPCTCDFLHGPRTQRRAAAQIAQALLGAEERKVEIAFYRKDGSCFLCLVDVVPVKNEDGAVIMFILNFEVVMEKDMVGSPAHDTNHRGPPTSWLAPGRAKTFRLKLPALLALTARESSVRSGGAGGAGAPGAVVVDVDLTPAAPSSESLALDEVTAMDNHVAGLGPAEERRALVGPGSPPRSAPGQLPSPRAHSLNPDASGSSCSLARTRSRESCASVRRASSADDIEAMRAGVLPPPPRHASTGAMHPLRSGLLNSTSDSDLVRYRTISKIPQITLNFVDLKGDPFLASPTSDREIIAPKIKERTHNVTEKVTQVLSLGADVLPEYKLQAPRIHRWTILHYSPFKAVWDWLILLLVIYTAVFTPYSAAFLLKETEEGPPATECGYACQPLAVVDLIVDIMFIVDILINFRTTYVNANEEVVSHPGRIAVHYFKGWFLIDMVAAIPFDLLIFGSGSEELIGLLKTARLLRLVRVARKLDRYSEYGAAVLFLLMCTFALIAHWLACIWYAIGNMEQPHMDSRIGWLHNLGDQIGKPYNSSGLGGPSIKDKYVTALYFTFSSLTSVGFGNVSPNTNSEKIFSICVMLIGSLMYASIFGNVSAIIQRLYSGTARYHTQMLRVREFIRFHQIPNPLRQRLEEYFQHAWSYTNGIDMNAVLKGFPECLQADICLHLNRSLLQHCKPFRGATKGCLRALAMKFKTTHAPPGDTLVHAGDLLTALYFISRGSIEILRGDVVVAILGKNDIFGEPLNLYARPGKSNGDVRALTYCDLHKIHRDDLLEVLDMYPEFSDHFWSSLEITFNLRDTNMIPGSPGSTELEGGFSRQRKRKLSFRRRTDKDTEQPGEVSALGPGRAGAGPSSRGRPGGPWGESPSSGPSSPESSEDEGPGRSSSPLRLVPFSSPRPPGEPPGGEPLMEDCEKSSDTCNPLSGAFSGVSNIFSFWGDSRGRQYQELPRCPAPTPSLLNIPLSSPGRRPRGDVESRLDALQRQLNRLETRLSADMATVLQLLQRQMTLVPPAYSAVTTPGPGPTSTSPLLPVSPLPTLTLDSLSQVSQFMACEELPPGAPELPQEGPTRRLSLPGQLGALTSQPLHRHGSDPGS

| SMILES | hERG current change (%, negative = inhibition) at 1uM |
| --- | --- |
| Cc1nc2c(ccc3c2ccc2nc(C)sc23)s1 | 13.6% |
| CC(=O)N1CCN(c2ccccc2NC(=O)c2cccs2)CC1 | -16.1% |
| Cc1ccnc(NC(=S)NC(=O)/C=C/c2ccccc2)c1 | 9.59% |
| CCCCn1nc(-c2ccccc2)c2nc3ccccc3nc21 | 5.38% |
| Cc1ccc(NCc2nnc(SCC(=O)Nc3nnc(C)s3)n2C)cc1 | 4.75% |
| CCC(C)[C@H]1CNCCN1CCCc1cc(OC)c(OC)c(OC)c1 (some centres unmarked) | 12.2% |
| Cc1nn(CC(=O)c2ccc(Cl)s2)c(C)c1[N+](=O)[O-] | 16.1% |
| Cn1c(=O)[nH]c(=O)c2c1nc1n2CCN1Cc1ccccc1 | 13.3% |
| CC(C)Cn1c(N)c(C(=O)CSc2nc3ccccc3c(=O)n2CCCN2CCOCC2)c(=O)n(C)c1=O | 1.66% |
| CC(O)c1nc2ccccc2n1CC(=O)N1CCN(c2ccccc2)CC1 (centres unmarked) | 15.6% |
| O=C(Nc1cc(S(=O)(=O)N2CCOCC2)ccc1N1CCOCC1)c1ccc(S(=O)(=O)N2CCCCC2)cc1 | 10.5% |
| CCCOc1ccc(S(=O)(=O)NCCN2CCOCC2)c2ccccc12 | 9.46% |
| COc1ccc(OC)c(NS(=O)(=O)c2ccc(-c3coc(C)n3)cc2)c1 | 10.4% |
| Cc1ccc(CCN2CC(C(=O)NCCN3CCOCC3)CC2=O)cc1 (centres unmarked) | 15% |
| COc1ccc(N(C(=O)c2ccco2)C(C(=O)NC2CCCC2)c2ccco2)cc1OC (centres unmarked) | 4.57% |
| Cc1ccc(C(=O)N/N=C\C2CC=CCC2)cc1[N+](=O)[O-] (centres unmarked) | 2.47% |
| Cc1ccc(/C=N/NC(=O)c2nn(C)cc2Cl)cc1 | 2.39% |
| Cl.O=C(CSc1cccc[n+]1[O-])Nc1ccc(N2CCOCC2)cc1 | 8.76% |
| O=C(NCCCN1CCOCC1)c1ccc(NS(=O)(=O)c2ccccc2)cc1 | 7.4% |
| COc1ccc(-n2c3c(c(=O)[nH]c2=O)C(NC(=O)c2ccncc2)(C(F)(F)F)C(=O)N3)cc1 (centres unmarked) | 2.11% |
| CN(C)c1ccc(P(=O)(OC2CCCCC2)C(O)c2ccncc2)cc1 (centres unmarked) | 5.73% |
| COc1ccccc1C/C(N)=N/OC(=O)c1cccs1 | 11% |
| COc1ccc(NC(=O)CCCc2nnc3n(C)c(=O)c4sccc4n23)cc1 | 13.7% |

| SMILES | hERG current change (%, negative = inhibition) at 1uM |
| --- | --- |
| CCOC(=O)[C@H]1[C@H]2COc3ccc(C)cc3[C@@H]2N2C(=O)CN(CC3CCCO3)C(=O)[C@@]12C (some centres unmarked) | 13.3% |
| CCc1ccccc1NC(=O)CN(C)C(=O)COc1ccc(C)nc1[N+](=O)[O-] | 0.971% |
| COCCn1ccc(O)c(Cc2ccccc2)c1=O | 7.02% |
| CCN(CC)S(=O)(=O)c1ccc(C(=O)C(C#N)c2ccccn2)cc1 (centres unmarked) | 19.1% |
| Cc1cnc(C(=O)OCC(=O)N2c3ccccc3NC(=O)C2(C)C)cn1 | 14.3% |
| O=C(NC1CCCCC1)c1n[nH]c2c1CCCCC2 | 13.2% |
| Cn1cccc1/C=N/N1CCN(c2ccccn2)CC1 | 15.8% |
| Cl.c1ccc(CNc2nc(N3CCN(Cc4ccccc4)CC3)nc3ccccc23)cc1 | 10.4% |
| CC(C)(CNC(=O)c1cccs1)CNC(=O)c1cccs1 | 12.8% |
| COc1ccccc1NC(=O)C1=C(C)Nc2nnnn2C1c1ccccc1OC (centres unmarked) | 11.1% |
| COc1ccc2[nH]c(C)c(CCN3C(=O)C4CC=CCC4C3=O)c2c1 (centres unmarked) | 6.96% |
| COc1ccccc1C(=O)NCC(=O)NCC1(N2CCCCC2)CCCCC1 | 4.1% |
| Nc1nc(SCc2ccc(Cl)cc2Cl)nc2nc3c(cc12)CCCC3 | 6.88% |
| CCOc1cc(-n2ncc(C#N)c2N)nc(SC)n1 | 14.4% |
| O=C(Cc1cccc2ccccc12)Nc1ccccc1 | 12.9% |
| Cc1cc([N+](=O)[O-])cc2ncccc12 | 1.61% |
| NC(=O)Cn1c(=O)oc2ccccc21 | 19.3% |
| O=C(CSC(=S)N1CCOCC1)c1cc(Br)cc(Br)c1O | 4.94% |
| O=S(=O)(NCC(c1cccnc1)N1CCN(Cc2ccccc2)CC1)c1ccccc1 (centres unmarked) | -52.4% |
| Cc1c(C(=O)[O-])oc2c1C(O)CC(C)(C)C2.[Na+] (centres unmarked) | 13.2% |
| O=c1oc2ccccc2cc1-c1csc(Cc2nc(-c3ccc(Br)cc3)cs2)n1 | 9.22% |
| CCOC(=O)c1cnc(SCC(=O)N2CCc3ccccc32)nc1N | 9.86% |
| CCOC(=O)CC1CCCCN1Cc1cn(C)nc1-c1ccc2c(c1)OCCO2 (centres unmarked) | 12.7% |

| SMILES | hERG current change (%, negative = inhibition) at 1uM |
| --- | --- |
| CC1CCCC(NC(=O)CCn2c(=S)oc3ccccc32)C1C (centres unmarked) | 9.85% |
| Cc1occc1C(=O)N/N=C/c1ccc[nH]1 | 9.76% |
| CCCCN(Cc1ccccc1)C(=O)c1cnc2n(c1=O)CCS2 | -0.378% |
| CN1CCC(NC(=O)c2cccc(Oc3ccccc3)c2)CC1 | 11.7% |
| Cc1ccc(C(=O)CSc2ncnc3sc4c(c23)CCCC4)cc1 | 1.97% |
| Cc1cc(NC(=O)C(C)C)ncc1NC(=O)Cc1ccccc1 | 13.3% |
| O=S1(=O)CCN(Cc2ccccc2C(F)(F)F)CC1 | 7.79% |
| COCCCNC(=O)c1cc2c(-c3cccc(OC)c3)nn(C)c2s1 | 16.6% |
| CSc1cccc(NC(=O)CSc2nc3ccccc3o2)c1 | 11.8% |
| COc1cc(OC)c(N(C)S(=O)(=O)c2cccc(C(=O)OCC(=O)NCc3ccco3)c2)cc1Cl | 8.1% |
| CCN(CCn1cccn1)C(=O)CC1C(=O)NCCN1CC1CCCCC1 (centres unmarked) | 17.4% |
| CC(C)Oc1ccc(C(=O)OC(C)C(=O)NC2CCCCC2C)cc1 (centres unmarked) | 7.76% |
| COc1ccc(C2CC(=O)N(C)c3ccccc3S2)cc1 (centres unmarked) | 2.99% |
| COC(=O)N1CCN(c2ccc(OC)cc2)CC1 | 0.43% |
| O=C(N/N=C/c1cc(Cl)cc(Cl)c1O)c1ccncc1 | 0.643% |
| O=c1c2ccccc2nc2oc3ccccc3n12 | 14.3% |
| Cc1ccc2nc(C)cc(C(=O)N3CCCC(N4CCN(c5ccccc5C)CC4)C3)c2c1 (centres unmarked) | -14.5% |
| O=C(c1ccc2c(c1)OCO2)C1CCCN(Cc2cc(F)ccc2-n2cccn2)C1 (centres unmarked) | -78.2% |
| O=C(COc1ccccc1)NCC(=O)N1CCCCCC1 | 12% |
| CCOC(=O)C1=C(COC(=O)/C=C/c2ccccc2F)NC(=O)NC1C (centres unmarked) | 10.2% |
| COCCn1c(SCC(=O)NCc2ccc(F)cc2)nc2ccccc21 | 2.2% |
| O=C(Nc1ccc(N2CCCCC2)c(Cl)c1)c1cccnc1 | 4.81% |
| CCOC(=O)C1CCN(C(=O)c2cc(S(=O)(=O)N3CCOCC3)c(Cl)cc2Cl)CC1 | -7.83% |

| SMILES | hERG current change (%, negative = inhibition) at 1uM |
| --- | --- |
| CCOC(=O)c1c(CN2CCCCC2)n(C)c2ccc(OC)c(S(=O)(=O)c3ccccc3)c12 | -6.01% |
| COc1cccc(NC(=O)COC(=O)c2ccco2)c1 | 7.17% |
| CC1c2cc3c(cc2CCN1C(=O)c1cccc(Cl)c1)OCCCO3 (centres unmarked) | 14.3% |
| O=C1/C(=C\c2ccco2)SC(=S)N1Cc1ccccc1 | 16.3% |
| Cc1nc(NC(=O)/C=C/c2ccccc2)n[nH]1 | 13.6% |
| Cc1ccc(CNC(=O)c2ccc(CS(=O)Cc3cccc(Cl)c3)o2)cc1 (centres unmarked) | 8.16% |
| COc1cc(C(=O)CSc2nccn2C)cc(OC)c1OC | 19.3% |
| CCOc1ccc(C(=O)NCC(=O)N2CCc3ccccc3C2)cc1OCC | 4.03% |
| COc1ccccc1/C=C/C(=O)NCC(=O)N/N=C/c1ccc(C)o1 | 5.98% |
| Cc1ccc(S(=O)(=O)N2CCC(=O)N(C(COCc3cccc(C)c3)C(C)C)CC2)cc1 (centres unmarked) | 0.649% |
| S=C(NCc1ccco1)Nc1ccc(Oc2ccc(Cl)cc2)cc1 | 5.63% |
| COc1cc(S(=O)(=O)NCC2COCCO2)ccc1-n1cnnn1 (centres unmarked) | -3.1% |
| COc1ccc(-c2oc3ccc(-c4ccc5c(c4)OCO5)cc3c2-c2ccc(OC)nc2)cc1 | 12.6% |
| Cc1ccc(-c2nnc(-n3nnc4ccccc43)c3ccccc23)cc1 | 21.1% |
| Cc1cc(C)nc(N2CCCC(C(=O)NC3CC3)C2)n1 (centres unmarked) | 2.5% |
| Cc1cccc(OCc2nnc(SCc3nc4cc(C(F)(F)F)ccc4c(=O)[nH]3)o2)c1 | 11.7% |
| COc1cccc(-n2cc(CN(C)Cc3nc(Cc4cccc(F)c4)no3)cn2)c1 | 10.8% |
| Cc1cccc(CSC(=N)N)c1 | 9.48% |
| Cc1ccc(SCC(=O)c2ccc(CC(=O)O)s2)cc1 | 11.9% |
| CS(=O)(=O)N(CC(=O)Nc1ccccc1C(=O)N1CCOCC1)c1cccc(F)c1 | 3.16% |
| Cl.NCCC1CCCC(CCN)N1 (centres unmarked) | 8.26% |
| Cc1ccc(NCC(=O)Nc2ccc(Br)cc2)cc1F | 6.39% |
| COc1ccc(C(=O)C2CCCN(C(=O)c3ccc4nccnc4c3)C2)c(C)c1 (centres unmarked) | 23.4% |
